Source: the supplement of paper PMC8728848
This is one part of the list.

How the values were obtained:
Test in all cases: glycan array binding signal (z-score within array); higher = stronger binding
Conditions in all cases: glycan notation: IUPAC condensed, linker removed
Fuc(a1-2)Gal = target: Fuc(a1-2)Gal
Procedure, shortened: (§1)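 Negative Z-scores can be read as non-binding. The Z-score is calculated within each array and then averaged across arrays of one protein sequence at different concentrations or buffers and across linkers. Arrays, 3228 in all, were curated from the Consortium for Functional Glycomics database and kept only where the protein sequence was available.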

Fuc(a1-2)Gal(b1-3)GalNAc = target: Fuc(a1-2)Gal(b1-3)GalNAc
Procedure, shortened: as §1

[1] = target: Fuc(a1-2)Gal(b1-3)GalNAc(b1-3)Gal
Procedure, shortened: as §1

[2] = target: Fuc(a1-2)Gal(b1-3)GalNAc(b1-3)Gal(a1-4)Gal(b1-4)Glc
Procedure, shortened: as §1

[3] = target: Fuc(a1-2)Gal(b1-3)GalNAc(b1-3)Gal(b1-4)Glc
Procedure, shortened: as §1

[4] = target: Fuc(a1-2)Gal(b1-3)GalNAc(b1-4)[Neu5Ac(a2-3)]Gal(b1-4)Glc
Procedure, shortened: as §1

[5] = target: Fuc(a1-2)Gal(b1-3)[Fuc(a1-4)]GlcNAc
Procedure, shortened: as §1

Fuc(a1-2)Gal(b1-4)Glc = target: Fuc(a1-2)Gal(b1-4)Glc
Procedure, shortened: as §1

Fuc(a1-2)Gal(b1-4)GlcNAc = target: Fuc(a1-2)Gal(b1-4)GlcNAc
Procedure, shortened: as §1

[6] = target: Fuc(a1-2)Gal(b1-4)GlcNAc(b1-3)Gal(b1-4)GlcNAc
Procedure, shortened: as §1

[7] = target: Fuc(a1-2)Gal(b1-4)GlcNAc(b1-3)Gal(b1-4)GlcNAc(b1-3)Gal(b1-4)GlcNAc
Procedure, shortened: as §1

[8] = target: Fuc(a1-2)Gal(b1-4)[Fuc(a1-3)]GalNAc(b1-3)Gal(b1-4)[Fuc(a1-3)]GlcNAc
Procedure, shortened: as §1

[9] = target: Fuc(a1-2)Gal(b1-4)[Fuc(a1-3)]GalNAc(b1-3)Gal(b1-4)[Fuc(a1-3)]GlcNAc(b1-3)Gal(b1-4)[Fuc(a1-3)]GalNAc
Procedure, shortened: as §1

[10] = target: Fuc(a1-2)Gal(b1-4)[Fuc(a1-3)]GlcNAc
Procedure, shortened: as §1

Fuc(a1-2)GlcNAc = target: Fuc(a1-2)GlcNAc
Procedure, shortened: as §1

Fuc(a1-2)[Gal(a1-3)]Gal = target: Fuc(a1-2)[Gal(a1-3)]Gal
Procedure, shortened: as §1

[11] = target: Fuc(a1-2)[Gal(a1-3)]Gal(b1-3)GlcNAc
Procedure, shortened: as §1

[12] = target: Fuc(a1-2)[Gal(a1-3)]Gal(b1-4)Glc
Procedure, shortened: as §1

[13] = target: Fuc(a1-2)[Gal(a1-3)]Gal(b1-4)GlcNAc
Procedure, shortened: as §1

[14] = target: Fuc(a1-2)[Gal(a1-3)]Gal(b1-4)[Fuc(a1-3)]GlcNAc
Procedure, shortened: as §1

[15] = target: Fuc(a1-2)[Gal(a1-4)]Gal(b1-4)GalNAc
Procedure, shortened: as §1

[16] = target: Fuc(a1-2)[GalNAc(a1-3)]Gal
Procedure, shortened: as §1

[17] = target: Fuc(a1-2)[GalNAc(a1-3)]Gal(b1-3)GlcNAc
Procedure, shortened: as §1

[18] = target: Fuc(a1-2)[GalNAc(a1-3)]Gal(b1-4)Glc
Procedure, shortened: as §1

[19] = target: Fuc(a1-2)[GalNAc(a1-3)]Gal(b1-4)GlcNAc
Procedure, shortened: as §1

[20] = target: Fuc(a1-2)[GalNAc(a1-3)]Gal(b1-4)[Fuc(a1-3)]GlcNAc
Procedure, shortened: as §1

[21] = target: Fuc(a1-2)[GalNAc(a1-4)]Gal(b1-4)GlcNAc
Procedure, shortened: as §1

Fuc(a1-3)GlcNAc = target: Fuc(a1-3)GlcNAc
Procedure, shortened: as §1

[22] = target: Fuc(a1-3)[Gal(b1-4)]GlcNAc
Procedure, shortened: as §1

[23] = target: Fuc(a1-3)[Gal(b1-4)]GlcNAc(b1-4)Gal(b1-4)[Fuc(a1-3)]GlcNAc
Procedure, shortened: as §1

B1: Dectin-1 CTLD (Mus musculus), Q6QLQ4 (protein)
chain: MKYHSHIENLDEDGYTQLDFSTQDIHKRPRGSEKGSRAPSSPWRPIAVGLGILCFVVVVVAAVLGALAFWRHNSGRNPEEKDNFLSRNKENHKPTESSLDEKVAPSKASQTTGGFSQSCLPNWIMHGKSCYLFSFSGNSWYGSKRHCSQLGAHLLKIDNSKEFEFIESQTSSHRINAFWIGLSRNQSEGPWFWEDGSAFFPNSFQVRNTVPQESLLHNCVWIHGSEVYNQICNTSSYSICEKEL
Question: Which results are given for B1?
Answer: glycan array binding signal (z-score) (Fuc(a1-2)Gal): -0.355; glycan array binding signal (z-score) (Fuc(a1-2)Gal(b1-3)GalNAc): -0.228; glycan array binding signal (z-score) [1]: -0.117; glycan array binding signal (z-score) [2]: -0.475; glycan array binding signal (z-score) [3]: -0.155; glycan array binding signal (z-score) [4]: -0.029; glycan array binding signal (z-score) [5]: 0.129; glycan array binding signal (z-score) (Fuc(a1-2)Gal(b1-4)Glc): -0.41; glycan array binding signal (z-score) (Fuc(a1-2)Gal(b1-4)GlcNAc): -0.083; glycan array binding signal (z-score) [6]: -0.342; glycan array binding signal (z-score) [7]: -0.18; glycan array binding signal (z-score) [8]: -0.438; glycan array binding signal (z-score) [9]: -0.367; glycan array binding signal (z-score) [10]: -0.473; glycan array binding signal (z-score) (Fuc(a1-2)GlcNAc): -0.205; glycan array binding signal (z-score) (Fuc(a1-2)[Gal(a1-3)]Gal): -0.364; glycan array binding signal (z-score) [11]: -0.245; glycan array binding signal (z-score) [12]: -0.581; glycan array binding signal (z-score) [13]: 0.031; glycan array binding signal (z-score) [14]: -0.028; glycan array binding signal (z-score) [15]: -0.201; glycan array binding signal (z-score) [16]: -0.311; glycan array binding signal (z-score) [17]: -0.341; glycan array binding signal (z-score) [18]: -0.46; glycan array binding signal (z-score) [19]: -0.431; glycan array binding signal (z-score) [20]: -0.372; glycan array binding signal (z-score) [21]: -0.297; glycan array binding signal (z-score) (Fuc(a1-3)GlcNAc): -0.307; glycan array binding signal (z-score) [22]: -0.312; glycan array binding signal (z-score) [23]: -0.055
